# Results published in the supplement of paper PMC8728848.
# The list shows a part of the results.
# B1: AFL (Aspergillus fumigatus), Q4WW81 (protein)
# chain: STPGAQQVLFRTGIAAVNLTNHLRVYFQDVYGSIRESLYEGSWANGTEKNVIGNAKLGSPVAATSKELKHIRVYTLTEGNTLQEFAYDSGTGWYNGGLGGAKFQVAPYSRIAAVFLAGTDALQLRIYAQKPDNTIQEYMWNGDGWKEGTNLGGALPGTGIGATSFRYTDYNGPSIRIWFQTDDLKLVQRAYDPHKGWYPDLVTIFDRAPPRTAIAATSFGAGNSSIYMRIYFVNSDNTIWQVCWDHGKGYHDKGTITPVIQGSEVAIISWGSFANNGPDLRLYFQNGTYISAVSEWVWNRAHGSQLGRSALPPA
# Legend:
# Assay in all cases: glycan array binding signal (z-score within array); higher = stronger binding
# Details in all cases: glycan notation: IUPAC condensed, linker removed
# [1] = biological target: Gal(b1-4)GalNAc(a1-3)[Fuc(a1-2)]Gal(b1-4)GlcNAc
# Procedure, shortened: (§1)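 Arrays were curated from the Consortium for Functional Glycomics database, 3228 in total, and kept only where the protein sequence was available. Binding is expressed as a within-array Z-score. This score was averaged across arrays of the same protein sequence at different concentrations or buffers and across linkers, and negative values can be read as non-binding.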
# [2] = biological target: Gal(b1-4)GalNAc(b1-3)[Fuc(a1-2)]Gal(b1-4)GlcNAc
# Procedure, shortened: as §1
# Gal(b1-4)Glc = biological target: Gal(b1-4)Glc
# Procedure, shortened: as §1
# Gal(b1-4)Glc6S = biological target: Gal(b1-4)Glc6S
# Procedure, shortened: as §1
# Gal(b1-4)GlcNAc = biological target: Gal(b1-4)GlcNAc
# Procedure, shortened: as §1
# [3] = biological target: Gal(b1-4)GlcNAc(a1-6)Gal(b1-4)GlcNAc
# Procedure, shortened: as §1
# Gal(b1-4)GlcNAc(b1-2)Man = biological target: Gal(b1-4)GlcNAc(b1-2)Man
# Procedure, shortened: as §1
# [4] = biological target: Gal(b1-4)GlcNAc(b1-2)Man(a1-3)Man(b1-4)GlcNAc(b1-4)GlcNAc
# Procedure, shortened: as §1
# [5] = biological target: Gal(b1-4)GlcNAc(b1-2)Man(a1-3)[Gal(b1-4)GlcNAc(b1-2)Man(a1-6)]Man(b1-4)GlcNAc(b1-4)GlcNAc
# Procedure, shortened: as §1
# [6] = biological target: Gal(b1-4)GlcNAc(b1-2)Man(a1-3)[Gal(b1-4)GlcNAc(b1-2)Man(a1-6)]Man(b1-4)GlcNAc(b1-4)[Fuc(a1-6)]GlcNAc
# Procedure, shortened: as §1
# [7] = biological target: Gal(b1-4)GlcNAc(b1-2)Man(a1-3)[Gal(b1-4)GlcNAc(b1-2)][GlcNAc(b1-4)]Man(b1-4)GlcNAc(b1-4)GlcNAc
# Procedure, shortened: as §1
# [8] = biological target: Gal(b1-4)GlcNAc(b1-2)Man(a1-3)[GlcNAc(b1-2)Man(a1-6)]Man(b1-4)GlcNAc(b1-4)GlcNAc
# Procedure, shortened: as §1
# [9] = biological target: Gal(b1-4)GlcNAc(b1-2)Man(a1-3)[Man(a1-6)]Man(b1-4)GlcNAc(b1-4)GlcNAc
# Procedure, shortened: as §1
# [10] = biological target: Gal(b1-4)GlcNAc(b1-2)Man(a1-6)Man(b1-4)GlcNAc(b1-4)GlcNAc
# Procedure, shortened: as §1
# [11] = biological target: Gal(b1-4)GlcNAc(b1-2)Man(a1-6)[GlcNAc(b1-2)Man(a1-3)]Man(b1-4)GlcNAc(b1-4)GlcNAc
# Procedure, shortened: as §1
# [12] = biological target: Gal(b1-4)GlcNAc(b1-2)Man(a1-6)[Man(a1-3)]Man(b1-4)GlcNAc(b1-4)GlcNAc
# Procedure, shortened: as §1
# [13] = biological target: Gal(b1-4)GlcNAc(b1-2)[Gal(b1-4)GlcNAc(b1-4)]Man(a1-3)[Gal(b1-4)GlcNAc(b1-2)Man(a1-6)]Man(b1-4)GlcNAc(b1-4)GlcNAc
# Procedure, shortened: as §1
# [14] = biological target: Gal(b1-4)GlcNAc(b1-2)[Gal(b1-4)GlcNAc(b1-4)]Man(a1-3)[Gal(b1-4)GlcNAc(b1-2)[Gal(b1-4)GlcNAc(b1-6)]Man(a1-6)]Man(b1-4)GlcNAc(b1-4)GlcNAc
# Procedure, shortened: as §1
# [15] = biological target: Gal(b1-4)GlcNAc(b1-2)[Gal(b1-4)GlcNAc(b1-4)]Man(a1-3)[GlcNAc(b1-4)][Gal(b1-4)GlcNAc(b1-2)Man(a1-6)]Man(b1-4)GlcNAc(b1-4)GlcNAc
# Procedure, shortened: as §1
# [16] = biological target: Gal(b1-4)GlcNAc(b1-2)[Gal(b1-4)GlcNAc(b1-4)]Man(a1-3)[GlcNAc(b1-4)][Gal(b1-4)GlcNAc(b1-2)[Gal(b1-4)GlcNAc(b1-6)]Man(a1-6)]Man(b1-4)GlcNAc(b1-4)GlcNAc
# Procedure, shortened: as §1
# [17] = biological target: Gal(b1-4)GlcNAc(b1-2)[Gal(b1-4)GlcNAc(b1-6)]Man(a1-6)[Gal(b1-4)GlcNAc(b1-2)Man(a1-3)]Man(b1-4)GlcNAc(b1-4)GlcNAc
# Procedure, shortened: as §1
# [18] = biological target: Gal(b1-4)GlcNAc(b1-2)[Gal(b1-4)GlcNAc(b1-6)]Man(a1-6)[GlcNAc(b1-4)][Gal(b1-4)GlcNAc(b1-2)Man(a1-3)]Man(b1-4)GlcNAc(b1-4)GlcNAc
# Procedure, shortened: as §1
# [19] = biological target: Gal(b1-4)GlcNAc(b1-3)Gal(b1-3)GlcNAc
# Procedure, shortened: as §1
# [20] = biological target: Gal(b1-4)GlcNAc(b1-3)Gal(b1-4)Glc
# Procedure, shortened: as §1
# [21] = biological target: Gal(b1-4)GlcNAc(b1-3)Gal(b1-4)GlcNAc
# Procedure, shortened: as §1
# [22] = biological target: Gal(b1-4)GlcNAc(b1-3)Gal(b1-4)GlcNAc(b1-3)Gal(b1-4)GlcNAc
# Procedure, shortened: as §1
# [23] = biological target: Gal(b1-4)GlcNAc(b1-3)Gal(b1-4)[Fuc(a1-3)GlcNAc(b1-6)]Gal(b1-4)Glc
# Procedure, shortened: as §1
# [24] = biological target: Gal(b1-4)GlcNAc(b1-3)Gal(b1-4)[Fuc(a1-3)]GlcNAc(b1-3)Gal(b1-4)[Fuc(a1-3)]GlcNAc
# Procedure, shortened: as §1
# [25] = biological target: Gal(b1-4)GlcNAc(b1-3)GalNAc
# Procedure, shortened: as §1
# [26] = biological target: Gal(b1-4)GlcNAc(b1-3)[Gal(b1-4)GlcNAc(b1-6)]Gal(b1-4)GlcNAc
# Procedure, shortened: as §1
# [27] = biological target: Gal(b1-4)GlcNAc(b1-3)[Gal(b1-4)GlcNAc(b1-6)]GalNAc
# Procedure, shortened: as §1
# [28] = biological target: Gal(b1-4)GlcNAc(b1-3)[GlcNAc(b1-6)]Gal(b1-4)GlcNAc
# Procedure, shortened: as §1
# [29] = biological target: Gal(b1-4)GlcNAc(b1-6)Gal(b1-4)GlcNAc
# Procedure, shortened: as §1
# [30] = biological target: Gal(b1-4)GlcNAc(b1-6)GalNAc
# Procedure, shortened: as §1
# [31] = biological target: Gal(b1-4)GlcNAc(b1-6)[Gal(b1-3)]GalNAc
# Procedure, shortened: as §1
# Gal(b1-6)Gal = biological target: Gal(b1-6)Gal
# Procedure, shortened: as §1
# Gal3S(b1-3)GalNAc = biological target: Gal3S(b1-3)GalNAc
# Procedure, shortened: as §1
# Gal3S(b1-3)GlcNAc = biological target: Gal3S(b1-3)GlcNAc
# Procedure, shortened: as §1
binder,measurement,setting,value
B1,glycan array binding signal (z-score),[1],-0.11
same,glycan array binding signal (z-score),[2],-0.329
same,glycan array binding signal (z-score),Gal(b1-4)Glc,-0.383
same,glycan array binding signal (z-score),Gal(b1-4)Glc6S,-0.388
same,glycan array binding signal (z-score),Gal(b1-4)GlcNAc,-0.376
same,glycan array binding signal (z-score),[3],-0.386
same,glycan array binding signal (z-score),Gal(b1-4)GlcNAc(b1-2)Man,-0.368
same,glycan array binding signal (z-score),[4],-0.367
same,glycan array binding signal (z-score),[5],-0.386
same,glycan array binding signal (z-score),[6],1.32
same,glycan array binding signal (z-score),[7],-0.385
same,glycan array binding signal (z-score),[8],-0.381
same,glycan array binding signal (z-score),[9],-0.351
same,glycan array binding signal (z-score),[10],-0.384
same,glycan array binding signal (z-score),[11],-0.38
same,glycan array binding signal (z-score),[12],-0.383
same,glycan array binding signal (z-score),[13],-0.304
same,glycan array binding signal (z-score),[14],-0.354
same,glycan array binding signal (z-score),[15],-0.375
same,glycan array binding signal (z-score),[16],-0.368
same,glycan array binding signal (z-score),[17],-0.356
same,glycan array binding signal (z-score),[18],-0.37
same,glycan array binding signal (z-score),[19],-0.379
same,glycan array binding signal (z-score),[20],-0.386
same,glycan array binding signal (z-score),[21],-0.389
same,glycan array binding signal (z-score),[22],-0.383
same,glycan array binding signal (z-score),[23],0.547
same,glycan array binding signal (z-score),[24],0.622
same,glycan array binding signal (z-score),[25],-0.386
same,glycan array binding signal (z-score),[26],-0.383
same,glycan array binding signal (z-score),[27],-0.382
same,glycan array binding signal (z-score),[28],-0.392
same,glycan array binding signal (z-score),[29],-0.38
same,glycan array binding signal (z-score),[30],-0.34
same,glycan array binding signal (z-score),[31],-0.386
same,glycan array binding signal (z-score),Gal(b1-6)Gal,-0.39
same,glycan array binding signal (z-score),Gal3S(b1-3)GalNAc,-0.387
same,glycan array binding signal (z-score),Gal3S(b1-3)GlcNAc,-0.372
